# The campaign covered roughly 310,000 compounds. About 14,000 (4.5%) showed an effect of 50% or more. The effect is printed as a negative number. The list shows a part of the results.
# Target: human ether-à-go-go-related gene (hERG) potassium channel (human, UniProt Q12809)
# Assay: primary screen, population patch clamp on CHO cells stably expressing hERG
# 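Further: peak tail current of the secondary pulse compared with the same well before compound.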
# human ether-à-go-go-related gene (hERG) potassium channel, sequence (Q12809 whole entry, looked up): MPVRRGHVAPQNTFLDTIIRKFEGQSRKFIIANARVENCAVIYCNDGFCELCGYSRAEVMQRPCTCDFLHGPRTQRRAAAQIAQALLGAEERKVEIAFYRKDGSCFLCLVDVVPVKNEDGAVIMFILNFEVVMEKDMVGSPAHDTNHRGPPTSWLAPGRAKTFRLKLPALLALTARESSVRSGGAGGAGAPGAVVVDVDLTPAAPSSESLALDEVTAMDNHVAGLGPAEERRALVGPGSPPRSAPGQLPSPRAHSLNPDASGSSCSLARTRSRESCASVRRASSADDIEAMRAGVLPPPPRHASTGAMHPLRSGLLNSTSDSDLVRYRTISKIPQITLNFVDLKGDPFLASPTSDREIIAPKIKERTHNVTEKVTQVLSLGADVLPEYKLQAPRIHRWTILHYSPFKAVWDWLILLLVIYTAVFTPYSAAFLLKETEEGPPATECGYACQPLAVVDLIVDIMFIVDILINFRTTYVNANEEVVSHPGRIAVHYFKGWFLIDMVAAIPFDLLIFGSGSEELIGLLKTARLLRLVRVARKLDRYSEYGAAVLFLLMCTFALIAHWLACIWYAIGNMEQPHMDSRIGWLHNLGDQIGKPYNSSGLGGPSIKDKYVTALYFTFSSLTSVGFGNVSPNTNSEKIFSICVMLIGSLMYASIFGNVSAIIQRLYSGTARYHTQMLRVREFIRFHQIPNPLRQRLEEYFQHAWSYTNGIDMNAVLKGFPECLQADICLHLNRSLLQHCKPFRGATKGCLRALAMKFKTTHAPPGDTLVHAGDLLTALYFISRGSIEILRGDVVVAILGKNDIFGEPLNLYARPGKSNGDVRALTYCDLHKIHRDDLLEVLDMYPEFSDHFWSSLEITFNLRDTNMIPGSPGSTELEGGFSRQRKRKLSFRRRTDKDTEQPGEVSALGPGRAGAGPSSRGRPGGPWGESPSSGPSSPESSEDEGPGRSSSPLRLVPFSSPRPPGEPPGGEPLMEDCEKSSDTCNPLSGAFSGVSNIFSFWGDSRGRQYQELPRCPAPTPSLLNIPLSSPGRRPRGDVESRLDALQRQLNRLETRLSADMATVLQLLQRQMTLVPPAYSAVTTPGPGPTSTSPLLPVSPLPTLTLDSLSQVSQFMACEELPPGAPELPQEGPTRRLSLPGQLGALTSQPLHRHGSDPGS
row,SMILES,"hERG current change (%, negative = inhibition) at 10uM [%]"
1,Cc1cc(C(=O)Nc2nc(C)c(C(=O)N(C)C)s2)ccc1[N+](=O)[O-],4.84
2,COC(=O)c1cccc(NC(=O)CC2C(=O)NCCN2C(=O)Nc2ccccc2)c1 (centres unmarked),19.2
3,Cl.c1cnc(N2CCNCC2)nc1,11.9
4,COc1ccc(C(=O)NNC(=O)c2snnc2C)cc1,14.1
5,COc1cccc(C(=O)Nc2ccc3nc(N4CCOCC4)cc(C)c3c2)c1,-55
6,COc1cccc(/C=N/NC(=S)Nc2cccc(C(=O)O)c2)c1O,22.6
7,COc1cc(OC)cc(C(=O)NNC(=O)CN2C(=O)NC3(CCCC3)C2=O)c1,-1.64
8,Cc1ccc(SCC(=O)Nc2c(Br)cnn2C)cc1,13.6
9,Cc1ccc(-c2csc3ncnc(NCCC(=O)O)c23)cc1C.Cl,2.42
10,O=C(Nc1ccccc1NC(=O)c1ccccc1Cl)c1ccccc1Cl,17.5
11,CCn1ncc(CNC(=O)C2(C)CC2(Cl)Cl)c1C (centres unmarked),13.4
12,COc1ccc(Cl)cc1Nc1cc(C)nc2nc(C)nn12,-13.6
13,O=C(CCCN1C(=O)/C(=C\c2ccccc2)SC1=S)Nc1ccc(C(=O)O)cc1,12.4
14,COc1ccc2cc(CN(CC3CCCO3)C(=S)Nc3ccccc3)c(=O)[nH]c2c1 (centres unmarked),-33.9
15,Cc1cc(C)cc(NC(=S)N(CCN2CCCCC2)Cc2ccco2)c1,-74.4
16,Cc1ccc(C(=O)NCCCn2ccnc2)cn1,4.36
17,Cn1c(=O)c2nc(-c3ccccc3)oc2c2ccccc21,-1.46
18,NC1=NC[C@H](Cc2ccccc2)N1CCc1cccc(F)c1,6.16
19,CCOC1(C(F)(F)F)NC(=O)N(Cc2ccc(OC)cc2)C1=O (centres unmarked),-5.95
20,Cc1cc(C(=O)Nc2ccc(Br)cc2F)n(-c2ccccc2)n1,-13.3

row,SMILES,"hERG current change (%, negative = inhibition) at 10uM [%]"
1,O=C(Cn1nc(C(=O)O)c2ccccc2c1=O)Nc1cccc(S(=O)(=O)N2CCOCC2)c1,-25.1
2,Cc1ccccc1-c1nc(CS(=O)(=O)CC(=O)N2CCc3ccccc32)c(C)o1,-11.6
3,O=S(=O)(N/N=C\c1cn(-c2ccccc2)nc1-c1ccccc1)c1ccccc1,5.42
4,O=C(Nc1cnccc1C(F)(F)F)NC1CCCCC1,5.81
5,COc1ccc(NC(=O)COC(=O)CCc2nc3ccccc3c(=O)[nH]2)c(OC)c1,7.12
6,O=[N+]([O-])c1nn(-c2ccc3c(c2)OCCO3)n(O)c1=NCc1ccc(F)cc1Cl,-7.4
7,Cc1ccc(OCC(=O)NCCCNC(=O)c2ccncc2)cc1,1.84
8,Cn1nc([N+](=O)[O-])c(C(C#N)c2nc3ccccc3n2C)c(Cl)c1=O (centres unmarked),-19.2
9,Cc1ccc(S(=O)(=O)N2CCOCC2)cc1C(=O)OC(C)C(=O)c1ccccc1 (centres unmarked),0.818
10,COc1ccc(C2=NCCNC(C(F)(F)F)=C2)cc1,-2.67
11,CC(=O)n1cc(/C=N/NC(=O)c2ccccc2O)c2ccccc21,9.58
12,COc1cccc(CN2CC(C(=O)N3CCOCC3)CCC2=O)c1 (centres unmarked),33.3
13,C=CCSc1nc2c(c(=O)[nH]c(=O)n2C)n1Cc1ccccc1,-22.3
14,CCS(=O)(=O)N1CCCC(C(=O)NC2CCCCC2C)C1 (centres unmarked),5.94
15,CC(C)=CCN1CCN(Cc2cc(CC(C)C)n[nH]2)CC1CCO (centres unmarked),-9.57
16,O.c1ccc2c(CN3CCN(C4CCCCC4)CC3)c[nH]c2c1,-18.2
17,CC(=O)NS(=O)(=O)c1ccc(NC(=O)CSc2ccc(C)cc2)cc1,13.5
18,CCOc1ccc(C(CC(=O)O)NC(=O)c2cccs2)cc1OC (centres unmarked),12.6
19,CCn1c(C(C)NC(=O)c2cccc(C)c2)nc2ccccc21 (centres unmarked),-19.6
20,COc1ccccc1NC(=O)Cn1nc(-c2ccc(Cl)cc2)c2ccccc2c1=O,-0.684

row,SMILES,"hERG current change (%, negative = inhibition) at 10uM [%]"
1,CCOc1cc(C(=O)N2CCN(c3ccccn3)CC2)cc(OCC)c1OCC,4.95
2,Cc1ccc(C(C)NC(=O)Cc2cccs2)c(C)c1 (centres unmarked),-9.26
3,COc1ccccc1CNC(=O)C(=O)NCC1CCCN1S(=O)(=O)c1cccs1 (centres unmarked),-9.48
4,CC(C)(C)NC(=O)COC(=O)c1ccc(S(=O)(=O)N2CCCCCC2)cc1,0.654
5,O=C(c1ccccc1)N1CCC2(CC1)NCCc1[nH]cnc12,26.6
6,O=C(N/N=C/CCc1ccccc1)C1CCCCC1,13
7,Cc1cc(NC(=O)CCC2CCCC2)no1,-1.81
8,COC(=O)Cc1c(C(=O)OC)nnn1-c1cccc(C(F)(F)F)c1,4.71
9,O=C(NCCCN1CCOCC1)c1cc(-c2ccc(Cl)s2)nc2ccccc12,-44.1
10,COc1ccc(/C(C)=N/NC(=O)c2nnn(-c3nonc3N)c2CN(C)c2ccccc2)cc1,14.8
11,COc1ccc(/C=C/C(=O)ONC2=NCCCCC2)cc1OC,8.3
12,CCOc1ccc(S(=O)(=O)Nc2nccs2)cc1,16.9
13,COc1ccc(CNC(=O)COC(=O)c2ccccn2)cc1,21.8
14,Cc1ccc(NC(=O)Cc2ccc3c(c2)CCCC3)cc1C,-6.8
15,Cc1ccc(NC(=S)NC2CCN(Cc3ccccc3)CC2)c(C)c1,-12.9
16,O=C(NCC1CCCO1)C1CCN(S(=O)(=O)c2cccnc2)CC1 (centres unmarked),-6.63
17,O=C(O)c1cccc(-n2cccc2C=C2C(=O)c3ccccc3C2=O)c1,15.9
18,Clc1cccc(/C=N\Nc2nccs2)c1,-2.59
19,Cc1nc2ccccc2c(=O)n1-c1ccncc1,8.6

# — paper PMC4336329 (PLoS ONE, 2015)
